The record followed here is the supplement of paper PMC12217912.

This is one part of the list. The full chains were built here from the parent and the listed change. Values near 0.05 are background.

B1: TEV protease; numbered along this chain (parent)
chain: MGESLFKGPRDYNPISSSICHLTNESDGHTTSLYGIGFGPFIITNKHLFRRNNGTLVVQSLHGVFKVKDTTTLQQHLVDGRDMIIIRMPKDFPPFPQKLKFREPQREERICLVTTNFQTKSMSSMVSDTSCTFPSGDGIFWKHWIQTKDGQCGSPLVSTRDGFIVGIHSASNFTNTNNYFTSVPKNFMELLTNQEAQQWVSGWRLNADSVLWGGHKVFMVKPEEPFQPVKEATQL

The variants in the assay derive from B1. The experiment in a line: raw area under fraction-flipped curve 0-4 h after induction (AUC4h, not background-subtracted), DNA-recorder readout of cleavage of the substrate (dimensionless); higher = more cleavage of the substrate by the protease variant. The conditions noted are these: temperature: 34 °C; time window: 0-4 h after rhamnose induction. Here is the method:
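In vivo DNA recorder in E. coli TOP10(DE3) ΔrhaA at 34 °C. Each TEVp single-site mutant (parent TEVp 0) is paired with a single-site variant of the 7-mer TEVs (canonical ENLYFQ|S). The substrate sits between flexible linkers in a Bxb1-sfGFP-TEVs-SsrA fusion, so cleavage stabilises Bxb1 and speeds flipping of a recombination array, read by NGS. The value is the raw area under the fraction-flipped curve over 0-4 h after rhamnose induction (AUC4h), with ≥20 reads per time point. It is not background-subtracted; inactive controls average about 0.047.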
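Note: Bxb1 expression induced with 0.2% (w/v) L-rhamnose at OD600 near 0.5, cultures sampled hourly, flipped fraction per protease–substrate barcode pair counted by paired-end Illumina sequencing.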

In the case of MGESLFKGPRDYNPISSSICHLTNESDGHTTSLYGIGFGPFIITNKHLFRRNNGTLVVQSLHGVFKVKDTTTLQQHLVDGRDMIIIRMPKDFPPFPQKLKFREPQREERICLVTTNFQTKSMSSMVSDTSCTFPSGDGIFWKHWIQTKDGQCGSPLVSTRDGFIVGIHSASNFTNTSNYFTSVPKNFMELLTNQEAQQWVSGWRLNADSVLWGGHKVFMVKPEEPFQPVKEATQL [N177S], the “area with substrate ENLYFQA” value turned out to be 0.0832, the “area with substrate ENLYFQC” value came to 0.0788, the “area with substrate ENLYFQD” value is 0.0574 and the “area with substrate ENLYFQE” value stood at 0.0626. Moreover, the “area with substrate ENLYFQF” value was 0.0349, the “area with substrate ENLYFQG” value amounted to 0.0741, the “area with substrate ENLYFQH” value is 0.0762 and the “area with substrate ENLYFQI” value came to 0.049. The “area with substrate ENLYFQK” value is 0.0675, the “area with substrate ENLYFQL” value stood at 0.0467, the “area with substrate ENLYFQM” value was 0.0701 and the “area with substrate ENLYFQN” value was 0.0473. Moreover, the “area with substrate ENLYFQP” value came to 0.0328, the “area with substrate ENLYFQQ” value came to 0.0715, the “area with substrate ENLYFQR” value was 0.0486 and the “area with substrate ENLYFQS” value worked out at 0.0821. Further, the “area with substrate ENLYFQT” value came out at 0.0484, the “area with substrate ENLYFQV” value amounted to 0.0316, the “area with substrate ENLYFQW” value came out at 0.0522 and the “area with substrate ENLYFQY” value is 0.0507.
Take MGESLFKGPRDYNPISSSICHLTNESDGHTTSLYGIGFGPFIITNKHLFRRNNGTLVVQSLHGVFKVKDTTTLQQHLVDGRDMIIIRMPKDFPPFPQKLKFREPQREERICLVTTNFQTKSMSSMVSDTSCTFPSGDGIFWKHWIQTKDGQCGSPLVSTRDGFIVDIHSASNFTNTNNYFTSVPKNFMELLTNQEAQQWVSGWRLNADSVLWGGHKVFMVKPEEPFQPVKEATQL [G166D]: the “area with substrate ENLYFQA” value amounted to 0.0393, the “area with substrate ENLYFQC” value amounted to 0.0519, the “area with substrate ENLYFQD” value was determined as 0.0464 and the “area with substrate ENLYFQE” value turned out to be 0.0474. Besides, the “area with substrate ENLYFQF” value is 0.0506, the “area with substrate ENLYFQG” value was 0.0361, the “area with substrate ENLYFQH” value is 0.0591 and the “area with substrate ENLYFQI” value worked out at 0.0536. The “area with substrate ENLYFQL” value amounted to 0.0531, the “area with substrate ENLYFQM” value worked out at 0.0543, the “area with substrate ENLYFQP” value was found to be 0.064 and the “area with substrate ENLYFQQ” value came out at 0.093. In addition, the “area with substrate ENLYFQR” value worked out at 0.0502, the “area with substrate ENLYFQS” value came to 0.0521, the “area with substrate ENLYFQT” value worked out at 0.0401 and the “area with substrate ENLYFQV” value turned out to be 0.0609. Also, the “area with substrate ENLYFQW” value was 0.0479 and the “area with substrate ENLYFQY” value amounted to 0.0716.
In the case of MGESLFKGPRDYNPISSSICHLTNESDGHTTSLYGIGFGPFIITNKHLFRRNNGTLVVQSLHGVFKVKDTTTLQQHLVDGRDMIIIRMPKDFPPFPQKLKFREPQREERICLVTTNFQTKSMSSMVSDTSCTFPSGDGIFWKHWIQTKDGQCGSPLVSTRDGFIVAIHSASNFTNTNNYFTSVPKNFMELLTNQEAQQWVSGWRLNADSVLWGGHKVFMVKPEEPFQPVKEATQL [G166A], the “area with substrate ENLYFQA” value was determined as 0.0363, the “area with substrate ENLYFQC” value stood at 0.0519, the “area with substrate ENLYFQD” value came to 0.0514 and the “area with substrate ENLYFQF” value amounted to 0.044. Also, the “area with substrate ENLYFQG” value was determined as 0.0505, the “area with substrate ENLYFQH” value came to 0.0283, the “area with substrate ENLYFQI” value is 0.0715 and the “area with substrate ENLYFQK” value was 0.051. Further, the “area with substrate ENLYFQL” value was 0.0525, the “area with substrate ENLYFQM” value amounted to 0.0479, the “area with substrate ENLYFQN” value is 0.0467 and the “area with substrate ENLYFQP” value worked out at 0.0379. Further, the “area with substrate ENLYFQQ” value was determined as 0.0462, the “area with substrate ENLYFQR” value came out at 0.0622, the “area with substrate ENLYFQS” value was 0.0516 and the “area with substrate ENLYFQT” value was found to be 0.0527. Further, the “area with substrate ENLYFQV” value came out at 0.0451 and the “area with substrate ENLYFQW” value was 0.074.
On to MGESLFKGPRDYNPISSSICHLTNESDGHTTSLYGIGFGPFIITNKHLFRRNNGTLVVQSLHGVFKVKDTTTLQQHLVDGRDMIIIRMPKDFPPFPQKLKFREPQREERICLVTTNFQTKSMSSMVSDTSCTFPSGDGIFWKHWIQTKDGQCGSPLVSTRDGFIVMIHSASNFTNTNNYFTSVPKNFMELLTNQEAQQWVSGWRLNADSVLWGGHKVFMVKPEEPFQPVKEATQL [G166M], for which the “area with substrate ENLYFQA” value is 0.0435, the “area with substrate ENLYFQC” value was determined as 0.0561, the “area with substrate ENLYFQD” value was 0.052 and the “area with substrate ENLYFQF” value was 0.0472. For the same variant, the “area with substrate ENLYFQG” value is 0.049, the “area with substrate ENLYFQI” value stood at 0.0475, the “area with substrate ENLYFQL” value worked out at 0.0395 and the “area with substrate ENLYFQM” value amounted to 0.0488. Also, the “area with substrate ENLYFQR” value is 0.0452, the “area with substrate ENLYFQS” value was found to be 0.0496, the “area with substrate ENLYFQT” value worked out at 0.0497 and the “area with substrate ENLYFQV” value came to 0.0435. Besides, the “area with substrate ENLYFQW” value worked out at 0.0418 and the “area with substrate ENLYFQY” value stood at 0.0507.
For MGESLFKGPRDYNPISSSICHLTNESDGHTTSLYGIGFGPFIITNKHLFRRNNGTLVVQSLHGVFKVKDTTTLQQHLVDGRDMIIIRMPKDFPPFPQKLKFREPQREERICLVTTNFQTKSMSSMVSDTSCTFPSGDGIFWKHWIQTKDGQCGSPLVSTRDGFIVGIHMASNFTNTNNYFTSVPKNFMELLTNQEAQQWVSGWRLNADSVLWGGHKVFMVKPEEPFQPVKEATQL [S169M], the “area with substrate ENLYFQA” value stood at 0.0763, the “area with substrate ENLYFQC” value stood at 0.0682, the “area with substrate ENLYFQD” value turned out to be 0.0617 and the “area with substrate ENLYFQE” value was 0.0595. Further, the “area with substrate ENLYFQF” value worked out at 0.0767, the “area with substrate ENLYFQG” value is 0.0818, the “area with substrate ENLYFQI” value turned out to be 0.0297 and the “area with substrate ENLYFQK” value was 0.0699. For the same variant, the “area with substrate ENLYFQM” value came out at 0.0615, the “area with substrate ENLYFQN” value was determined as 0.0607, the “area with substrate ENLYFQQ” value was found to be 0.0604 and the “area with substrate ENLYFQR” value was found to be 0.0623. Further, the “area with substrate ENLYFQS” value turned out to be 0.0723, the “area with substrate ENLYFQT” value was 0.0558, the “area with substrate ENLYFQV” value was 0.0413 and the “area with substrate ENLYFQW” value is 0.0609. Moreover, the “area with substrate ENLYFQY” value stood at 0.0618.
Regarding MGESLFKGPRDYNPISSSICHLTNESDGHTTSLYGIGFGPFIITNKHLFRRNNGTLVVQSLHGVFKVKDTTTLQQHLVDGRDMIIIRMPKDFPPFPQKLKFREPQREERICLVTTNFQTKSMSSMVSDTSCTFPSGDGIFWKHWIQTKDGQCGSPLVSTRDGFIVGIHWASNFTNTNNYFTSVPKNFMELLTNQEAQQWVSGWRLNADSVLWGGHKVFMVKPEEPFQPVKEATQL [S169W], the “area with substrate ENLYFQA” value worked out at 0.0564, the “area with substrate ENLYFQI” value came out at 0.0683, the “area with substrate ENLYFQK” value is 0.0646 and the “area with substrate ENLYFQL” value amounted to 0.0458. Further, the “area with substrate ENLYFQN” value worked out at 0.0419, the “area with substrate ENLYFQQ” value amounted to 0.0615, the “area with substrate ENLYFQR” value is 0.0453 and the “area with substrate ENLYFQS” value stood at 0.0603. The “area with substrate ENLYFQT” value worked out at 0.0595, the “area with substrate ENLYFQV” value amounted to 0.0512 and the “area with substrate ENLYFQW” value was 0.103.
As for MGESLFKGPRDYNPISSSICHLTNESDGHTTSLYGIGFGPFIITNKHLFRRNNGTLVVQSLHGVFKVKDTTTLQQHLVDGRDMIIIRMPKDFPPFPQKLKFREPQREERICLVTTNFQTKSMSSMVSDTSCTFPSGDGIFWKHWIQTKDGQCGSPLVSTRDGFIVGIHSASNFTNTNNYFTSVPKNFMELKTNQEAQQWVSGWRLNADSVLWGGHKVFMVKPEEPFQPVKEATQL [L191K], the “area with substrate ENLYFQA” value was 0.0779, the “area with substrate ENLYFQD” value was 0.0537, the “area with substrate ENLYFQF” value was determined as 0.0599 and the “area with substrate ENLYFQG” value stood at 0.099. Also, the “area with substrate ENLYFQH” value was 0.0563, the “area with substrate ENLYFQI” value was 0.0468, the “area with substrate ENLYFQK” value was found to be 0.0582 and the “area with substrate ENLYFQL” value is 0.0567. Further, the “area with substrate ENLYFQM” value worked out at 0.0499, the “area with substrate ENLYFQN” value turned out to be 0.0459, the “area with substrate ENLYFQP” value stood at 0.0707 and the “area with substrate ENLYFQR” value is 0.0615. Besides, the “area with substrate ENLYFQS” value stood at 0.0573, the “area with substrate ENLYFQT” value was found to be 0.0557, the “area with substrate ENLYFQV” value turned out to be 0.0352 and the “area with substrate ENLYFQY” value is 0.0537.
Take MGESLFKGPRDYNPISSSICHLTNESDGHTTSLYGIGFGPFIITNKHLFRRNNGTLVVQSLHGVFKVKDTTTLQQHLVDGRDMIIIRMPKDFPPFPQKLKFREPQREERICLVTTNFQTKSMSSMVSDTSCTFPSGDGIFWKHWIQTKDGQCGSPLVSTRDGFIVGIHSASNFTNTNNYFTSVPKNFMELFTNQEAQQWVSGWRLNADSVLWGGHKVFMVKPEEPFQPVKEATQL [L191F]: the “area with substrate ENLYFQA” value was 0.0993, the “area with substrate ENLYFQC” value was 0.136, the “area with substrate ENLYFQF” value is 0.0778 and the “area with substrate ENLYFQG” value worked out at 0.0855. In addition, the “area with substrate ENLYFQH” value came out at 0.108, the “area with substrate ENLYFQI” value is 0.055, the “area with substrate ENLYFQK” value turned out to be 0.052 and the “area with substrate ENLYFQM” value came to 0.0905. For the same variant, the “area with substrate ENLYFQN” value stood at 0.0797, the “area with substrate ENLYFQP” value amounted to 0.0629, the “area with substrate ENLYFQR” value stood at 0.0587 and the “area with substrate ENLYFQS” value was 0.0919. Besides, the “area with substrate ENLYFQT” value stood at 0.063, the “area with substrate ENLYFQV” value turned out to be 0.0543, the “area with substrate ENLYFQW” value was found to be 0.0759 and the “area with substrate ENLYFQY” value is 0.0696.
